Consider 1 molecule from PubChem BioAssay (NCI).

In this test the test system is NCI/ADR-RES ovarian. The test can be described thus: NCI-60 one-dose screen, 48 h (100 = growth as untreated, 0 = no growth, -100 = all killed).

Some compounds were tested as several samples or in several runs, with calls that do not always agree.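 Cells were grown in 96-well plates and exposed to the test compound at a single concentration for 48 hours; results are reported as percent growth, with values below 10 considered active.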 The source holds more than one record for some entries. The other results are left out here. There may be further records. The screen tested this drug many times, at its own concentration, as given; each value is one run. Brackets with × count equal records among those shown.

As to `COc1cccc2c1C(=O)c1c(O)c3c(c(O)c1C2=O)C[C@@](O)(C(=O)CO)C[C@@H]3OC1CC(N)C(O)C(C)O1` (stereo not given in full), the growth entry reads like this: (0.25 µM, runs of 2013) “inactive: 112 (2×), 103 (8×), 108 (4×), 114 (4×), 109 (5×), 115 (2×), 104 (7×), 110 (5×), 98.6, 111 (5×), 101 (6×), 107 (2×), 98, 106, 100 (6×), 96.6, 98.7, 105 (4×), 98.8 (2×), 99, 96.2%”; (0.25 µM, runs of 2014) “inactive: 106 (4×), 95, 101 (6×), 98.2, 97, 103 (5×), 100 (3×), 94.4 (3×), 92.4, 99.1, 104 (7×), 98.6, 99.7 (2×), 92.9, 94.5 (2×), 105 (2×), 107 (2×), 109, 96.2, 91.9, 93.9, 88.2, 89.4, 96.9 (2×), 97.3 (3×), 98.1, 92.1, 99.2, 98.9, 97.1, 96.5, 95.2 (2×), 93.2 (2×), 97.6, 93.3, 90.7, 87.6, 87.5, 86.5%”; (0.25 µM, runs of 2015) “inactive: 96.5 (3×), 101 (3×), 99.9 (2×), 100, 97.6 (2×), 98.9 (2×), 97.8, 99.2 (2×), 96.9, 97.4 (2×), 94.4 (2×), 89.3, 88.8, 99, 92, 98.2, 97.3 (2×), 97.1 (3×), 95.8 (2×), 94.3 (2×), 94 (2×), 98.6, 96.3, 99.3, 95.2, 90.4, 98.3 (2×), 91.2, 96.4 (2×), 86.7, 104, 89.9, 88.6, 85.8, 90.7, 94.7, 95.4 (2×), 91.3, 92.3, 98, 98.4, 90.5, 92.2, 92.6, 90, 91.8, 96.7, 96.2%”; (0.25 µM, runs of 2016) “inactive: 91.9, 95.6 (3×), 96.2 (2×), 98.6, 91.2, 95.8, 94.5 (2×), 92.8 (3×), 95.7, 96.6, 93.1 (2×), 96.3 (2×), 89.7, 94.3 (2×), 87.1, 92, 91.1, 92.3, 92.1, 97.4 (2×), 94.7, 97, 96, 99.3 (2×), 98 (2×), 99.6, 98.8 (3×), 98.7, 96.7 (2×), 97.8, 100 (4×), 93.9, 99 (2×), 98.2 (2×), 99.9 (2×), 101 (4×), 94, 92.6, 97.7, 95.4, 94.6, 96.5 (2×), 95, 99.5, 98.9, 97.2, 99.7%”; (0.25 µM, runs of 2017) “inactive: 98.1 (2×), 99.6, 97.6 (2×), 100 (2×), 95.8 (2×), 97.1, 95.4, 97.3 (2×), 96.6 (2×), 92.8, 91.2, 97.4 (2×), 92, 96, 96.2 (2×), 92.2 (2×), 93.2, 98.7 (2×), 97.2, 97.7, 99.9, 95 (2×), 95.2 (2×), 99.2, 105, 99.1, 93.4 (4×), 99, 94.4, 94.6, 99.5, 98.3, 95.7 (2×), 95.6, 92.3, 92.1 (2×), 91, 92.6 (2×), 94.5, 90.7, 88.9, 93.9, 103% (2×)”; (0.25 µM, runs of 2018) “inactive: 96.4, 92.9 (2×), 94.4, 96.7 (3×), 97, 92, 96.6 (2×), 94.7, 99.6, 97.2, 103 (3×), 98.2 (2×), 101 (7×), 99.9 (2×), 100 (2×), 91.6, 99.1, 98.7 (2×), 108, 97.4 (2×), 97.8, 99.7, 98.8, 97.6, 98.6, 96.9, 93.9, 98.4, 104, 94.6, 98.3, 85.7%”. For the same molecule, the growth result is, setting by setting: (0.25 µM, runs of 2019) “inactive: 90.5, 97.6, 92.1 (2×), 91.6 (3×), 90, 91 (2×), 85, 87.1, 92.8, 91.2, 97.2, 89.4, 92.3, 91.3 (2×), 93.9, 98.3, 99.7, 89.1, 89.7, 83.7, 93.4, 98.6, 94.3 (2×), 94.6 (2×), 98.8, 93.2, 95.8, 82.5, 89.9%”; (0.25 µM, runs of 2020) “inactive: 91.8, 85.7, 97.1, 94.3, 95.7, 93.9, 97.6, 99, 98.8, 91, 88.3, 93.2, 87.7, 89.7, 92.1 (2×), 88, 89.6 (2×), 92.6, 88.1, 92.8, 95, 94.7%”; (0.25 µM, runs of 2021) “inactive: 98.7, 99, 97 (2×), 99.6, 94.6, 97.7 (2×), 98.4 (2×), 92.4, 92.6, 91.9, 98.9, 101 (3×), 97.1, 97.2 (2×), 89.4, 88.8, 93.4 (2×), 94.5, 96.9, 95.6, 98.6 (2×), 94.3, 96.5, 92.8, 99.7, 99.3, 90.9, 89.7, 97.4, 88.5, 84, 85, 88.3, 95, 92%”; (0.25 µM, runs of 2022) “inactive: 86.7, 84.6, 87.2 (2×), 82.7, 95, 89.5, 98.9 (2×), 97.1, 101 (2×), 88.1, 95.6, 98.8, 97.8, 97.7, 92.3, 94, 85.2, 99.6, 89.4, 104, 81.7, 81.1, 92.2, 85.7%”; (25 µM, runs of 1993) “inactive: 62 (2×), 59.4, 48.9, 63.5, 51.8, 112, 44.9, 50.7, 66, 45.6, 59, 65.6, 44.8, 53.8, 55.1 (2×), 54, 45.8, 68.1, 69.8, 65.9, 34.2, 48.8, 50.4 (2×), 68.5, 57.3, 35.5, 42, 66.5, 57.6, 55.7, 68.9, 56, 57.5, 53.4, 52.2, 44, 54.7 (2×), 51.2, 65.1, 47.5, 70.2, 47.3%”; (25 µM, runs of 1994) “inactive: 59.1, 46.7, 55.2, 40.2, 36.6, 48.9, 61.5, 44, 29.6, 46.4 (2×), 55.4, 33.9, 36.7, 76.7, 47.3, 51.5, 37.6, 51.1, 38.5, 60.3, 50.5, 64.4, 58.7, 52.6, 57.3, 44.2, 70.1, 50, 34%”. In addition, the growth result is “inactive: 33.4, 36.3, 51.9, 57.8, 44.8, 60.4, 68.7, 59.4, 46.9 (2×), 36.6, 40.9, 47.9, 44.3, 34.2, 36.9, 47.6, 35.9, 48.2, 29.8, 56.9, 60.1, 50.1, 33.1, 41.3, 44.2, 45.4, 39.9, 47.3, 43.3, 46.5, 20.2, 48.8, 57, 66.8, 61.9, 63.8% and active: -23.6%, -10.1%” (25 µM, runs of 1995); “inactive: 71.7, 56.7 (2×), 42.7, 54.5, 61.1, 44.8, 53.1, 50.6 (2×), 40, 46.5, 43.4, 39.2, 43.3, 76.7, 47, 70.6, 58.8, 53.5, 51.1 (2×), 57.1, 41.7, 64.6, 26.7, 51.7, 52.6, 28.4, 41.8, 36.3, 28.1 (2×), 32.8, 29.8, 23.6, 21.8, 38.7, 10.8, 44 (2×), 27.8, 33.9, 47.1, 30.8, 40.9 (2×), 24.3, 53, 36.7, 27.2, 67.7, 30.6% and active: 1.22%, -2.15%” (25 µM, runs of 1996); “inactive: 48.2, 44.9, 34.9, 47.1, 23.5, 22.4, 28.8, 14, 18.3, 52.3, 33.9, 14.7, 25.8, 38, 19.1, 23.1, 35.9, 37.6, 16.5, 18.4, 38.6, 47.3, 45.5, 68.4, 40.9, 64.5, 39.8, 50.7, 54.7, 52.2, 60, 59, 54.9, 82.3, 50, 45, 42.6, 57.9, 49.9% and active: 0.579, -16.2, 6.75, 0.978%” (25 µM, runs of 1997).
